The record followed here is a collection of fitness landscapes (doi:10.1016/j.celrep.2020.107928).

The full ranking holds about 81,000 sequences; the median of “one-hybrid fitness for binding parS DNA” is about -0.17, and the highest 2% start at about 0.51. This is one part of the list.

First the molecules themselves.
B1: Caulobacter ParB omega fusion; a variant is named by its letters at X, in order, B8GW30 (parent)
chain: MESVVVGEPGMSEGRRGLGRGLSALLGEVDAAPAQAPGEQLGGSREAPIEILQRNPDQPRRTFREEDLEDLSNSIREKGVLQPILVRPSPDTAGEYQIVAGERAWRAAQRAGLKTVPIMVRELDDLAVLEIGIIENVQRADLNVLEEALSYKVLMEKFERTQENIAQTIGKSXSHVANXMRLLXLPDEVQSYLVSGELTAXHARAIAAAADPVALAKQIIEGGLSVRETEALARKAPNLSAGKSKGGRPPRVKDTDTQALESDLSSVLGLDVSIDHRGSTGTLTITYATLEQLDDLCNRLTRGI

In the test the parent is B1. Nature of the test: one-hybrid fitness for binding parS DNA (scaled: cognate 1, non-cognate 0); higher = stronger binding. The settings on record: with parS DNA site. Summed up: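 On M9-minus-histidine containing 0.1 mM IPTG and 5 mM 3-AT, E. coli USO cells with a HIS3 reporter, site 19 bp from the promoter, grew 48 hours at 37°C to select Caulobacter ParB libraries randomised at four specificity codons. Plasmids from before and after were Illumina-sequenced, with three replicate libraries pooled and variants under 10 reads left out. Fitness is the log change in variant-to-wild-type read ratio, rescaled against cognate and non-cognate.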
Regarding PHSY, the “one-hybrid fitness for binding parS DNA” value is no more than 0.2.
To AQCN belongs no more than 0.2; to QVPP, no more than 0.2; to VGTA, no more than 0.2.
In the case of QQHL, the “one-hybrid fitness for binding parS DNA” value is no more than 0.2.
QPDF: the “one-hybrid fitness for binding parS DNA” value is no more than 0.2.
For the variant QVHW, the “one-hybrid fitness for binding parS DNA” value was no more than 0.2.
Regarding FSKR, the “one-hybrid fitness for binding parS DNA” value was no more than 0.2.
As for ECSG, the figure is no more than 0.2; as for LVNW, no more than 0.2.
With TQFT, the “one-hybrid fitness for binding parS DNA” value was no more than 0.2.
To NVSM belongs no more than 0.2.
As for CEYG, the figure is no more than 0.2; as for QTRR, no more than 0.2.
With DRVG, the “one-hybrid fitness for binding parS DNA” value is no more than 0.2.
With FAVR, the “one-hybrid fitness for binding parS DNA” value was no more than 0.2.
Consider KDKK, for which the “one-hybrid fitness for binding parS DNA” value was no more than 0.2.
For the variant WTRI, the “one-hybrid fitness for binding parS DNA” value was no more than 0.2.
To SGTE belongs no more than 0.2; to DGCS, no more than 0.2.
As for PCLC, the “one-hybrid fitness for binding parS DNA” value was no more than 0.2.
Turning to STFK, the “one-hybrid fitness for binding parS DNA” value is no more than 0.2.
As to YRNR, the “one-hybrid fitness for binding parS DNA” value is no more than 0.2.
Take SNYV: the “one-hybrid fitness for binding parS DNA” value was no more than 0.2.
For the variant LRVE, the “one-hybrid fitness for binding parS DNA” value is no more than 0.2.
As for GDTA, the figure is no more than 0.2; as for RKFN, 0.295; as for HKNS, no more than 0.2.
To CPSY belongs no more than 0.2; to RNEM, no more than 0.2; to TAHV, no more than 0.2.
EQVG: the “one-hybrid fitness for binding parS DNA” value was no more than 0.2.
As for RDNT, the figure is no more than 0.2; as for QKTI, no more than 0.2; as for AYPI, no more than 0.2.
To VEHV belongs no more than 0.2; to KKRV, no more than 0.2; to HAGW, no more than 0.2.
To CGWR belongs no more than 0.2.
For KRIA, the “one-hybrid fitness for binding parS DNA” value was no more than 0.2.
Turning to NVHW, the “one-hybrid fitness for binding parS DNA” value is no more than 0.2.
As for FMKR, the figure is no more than 0.2; as for HDQG, no more than 0.2; as for STYP, no more than 0.2.
Consider KVMS, for which the “one-hybrid fitness for binding parS DNA” value is no more than 0.2.
To TDKS belongs no more than 0.2; to PASN, no more than 0.2.
To RILV belongs no more than 0.2.
For the variant QAGE, the “one-hybrid fitness for binding parS DNA” value was no more than 0.2.
As for FMNF, the figure is no more than 0.2; as for ADSI, no more than 0.2; as for LTLS, no more than 0.2.
Regarding AGPV, the “one-hybrid fitness for binding parS DNA” value is no more than 0.2.
As for AHIL, the figure is no more than 0.2; as for ALPC, no more than 0.2; as for RQEH, 0.281.
Regarding TKQR, the “one-hybrid fitness for binding parS DNA” value is no more than 0.2.
With ESHV, the “one-hybrid fitness for binding parS DNA” value was no more than 0.2.
For HAPH, the “one-hybrid fitness for binding parS DNA” value is no more than 0.2.
As for HFGL, the figure is no more than 0.2; as for QLEI, no more than 0.2; as for AGWP, no more than 0.2.
As for IVVL, the figure is no more than 0.2.
Consider DTHY, for which the “one-hybrid fitness for binding parS DNA” value was no more than 0.2.
As for PRIQ, the figure is no more than 0.2; as for AAAN, no more than 0.2.
As for MGFR, the figure is no more than 0.2.
To GRYR belongs no more than 0.2; to RRIC, 0.71.
EDHT: the “one-hybrid fitness for binding parS DNA” value is no more than 0.2.
In the case of EKIT, the “one-hybrid fitness for binding parS DNA” value was no more than 0.2.
Consider SPGM, for which the “one-hybrid fitness for binding parS DNA” value is no more than 0.2.
To QTSS belongs no more than 0.2; to RPNM, no more than 0.2.
As for LHMY, the “one-hybrid fitness for binding parS DNA” value was no more than 0.2.
Turning to GQRY, the “one-hybrid fitness for binding parS DNA” value is no more than 0.2.
To RVGY belongs 0.438.
As for CFTG, the figure is no more than 0.2.
In the case of SVRG, the “one-hybrid fitness for binding parS DNA” value was no more than 0.2.
As to AHAG, the “one-hybrid fitness for binding parS DNA” value was no more than 0.2.
Consider VFFS, for which the “one-hybrid fitness for binding parS DNA” value is no more than 0.2.
To CENL belongs no more than 0.2.
With SCYT, the “one-hybrid fitness for binding parS DNA” value is no more than 0.2.
As to CKHS, the “one-hybrid fitness for binding parS DNA” value was no more than 0.2.
As for CTLR, the “one-hybrid fitness for binding parS DNA” value is no more than 0.2.
As for CQIC, the “one-hybrid fitness for binding parS DNA” value is no more than 0.2.
To SIFM belongs no more than 0.2.
Regarding GPMG, the “one-hybrid fitness for binding parS DNA” value is no more than 0.2.
To GSPW belongs no more than 0.2; to QNEY, no more than 0.2; to HCID, no more than 0.2.
For the variant YNGR, the “one-hybrid fitness for binding parS DNA” value was no more than 0.2.
As for PQNC, the figure is no more than 0.2; as for FVKT, no more than 0.2.
For the variant VACC, the “one-hybrid fitness for binding parS DNA” value is no more than 0.2.
In the case of LICT, the “one-hybrid fitness for binding parS DNA” value was no more than 0.2.
Take ICGG: the “one-hybrid fitness for binding parS DNA” value was no more than 0.2.
As for QDSQ, the “one-hybrid fitness for binding parS DNA” value is no more than 0.2.
On to SEPV, for which the “one-hybrid fitness for binding parS DNA” value is no more than 0.2.
As for HSVS, the figure is no more than 0.2.
As for VHRG, the figure is no more than 0.2; as for FAKG, no more than 0.2.
To RKWG belongs 0.952; to RCLQ, no more than 0.2.
Take KEKV: the “one-hybrid fitness for binding parS DNA” value was no more than 0.2.
With YNIR, the “one-hybrid fitness for binding parS DNA” value was no more than 0.2.
In the case of MDIE, the “one-hybrid fitness for binding parS DNA” value is no more than 0.2.
As for WTVG, the figure is no more than 0.2.
As for QWWL, the figure is no more than 0.2; as for QMQS, no more than 0.2.
In the case of VFVG, the “one-hybrid fitness for binding parS DNA” value is no more than 0.2.
Consider PTVL, for which the “one-hybrid fitness for binding parS DNA” value was no more than 0.2.
To QYDT belongs no more than 0.2; to TRCF, no more than 0.2; to TPCS, no more than 0.2.
As for RFET, the figure is 0.655.
As for LASR, the “one-hybrid fitness for binding parS DNA” value is no more than 0.2.
To SQTG belongs no more than 0.2; to RHQC, 0.951; to WALI, no more than 0.2.
As for PRRV, the figure is no more than 0.2; as for HNKV, no more than 0.2.
As for YPVT, the figure is no more than 0.2.
On to KYTW, for which the “one-hybrid fitness for binding parS DNA” value is no more than 0.2.
Turning to YKKI, the “one-hybrid fitness for binding parS DNA” value is no more than 0.2.
For the variant ASTQ, the “one-hybrid fitness for binding parS DNA” value was no more than 0.2.
To CFYR belongs no more than 0.2; to RMVE, no more than 0.2.
ATDF: the “one-hybrid fitness for binding parS DNA” value was no more than 0.2.
For LAPI, the “one-hybrid fitness for binding parS DNA” value is no more than 0.2.
To GMHR belongs no more than 0.2; to HSEN, no more than 0.2; to PKRI, no more than 0.2.
As for PFMF, the figure is no more than 0.2; as for INSR, no more than 0.2; as for NKDR, no more than 0.2.
On to PHLW, for which the “one-hybrid fitness for binding parS DNA” value is no more than 0.2.
Turning to VVTF, the “one-hybrid fitness for binding parS DNA” value is no more than 0.2.
As to VWFR, the “one-hybrid fitness for binding parS DNA” value is no more than 0.2.
Regarding KNML, the “one-hybrid fitness for binding parS DNA” value is no more than 0.2.
NDNF: the “one-hybrid fitness for binding parS DNA” value is no more than 0.2.
To WPQR belongs no more than 0.2; to RSFP, no more than 0.2; to PRFG, no more than 0.2.
To AYRN belongs no more than 0.2.
As for DRHM, the “one-hybrid fitness for binding parS DNA” value was no more than 0.2.
Consider PIHT, for which the “one-hybrid fitness for binding parS DNA” value is no more than 0.2.
As for QWHF, the figure is no more than 0.2.
To PPVI belongs no more than 0.2; to LRCE, no more than 0.2.
As for QHHV, the figure is no more than 0.2.
Take FAVT: the “one-hybrid fitness for binding parS DNA” value was no more than 0.2.
To LPAR belongs no more than 0.2.
